We go through 95 compounds from PubChem BioAssay AID485344 (National Center for Advancing Translational Sciences (NCATS), 2010).

Screen size: about 340,000 compounds; about 6,900 (2%) were called active. Cut-off read from the data, not from the text of the source: active = inhibition above about 30%; inactive = below that, where a call was filed. The list shows a part of the results, in another mix than the full data. Entries without a call were filed so in the source.

Sequence of UniProt P14416 (P14416 whole entry, looked up): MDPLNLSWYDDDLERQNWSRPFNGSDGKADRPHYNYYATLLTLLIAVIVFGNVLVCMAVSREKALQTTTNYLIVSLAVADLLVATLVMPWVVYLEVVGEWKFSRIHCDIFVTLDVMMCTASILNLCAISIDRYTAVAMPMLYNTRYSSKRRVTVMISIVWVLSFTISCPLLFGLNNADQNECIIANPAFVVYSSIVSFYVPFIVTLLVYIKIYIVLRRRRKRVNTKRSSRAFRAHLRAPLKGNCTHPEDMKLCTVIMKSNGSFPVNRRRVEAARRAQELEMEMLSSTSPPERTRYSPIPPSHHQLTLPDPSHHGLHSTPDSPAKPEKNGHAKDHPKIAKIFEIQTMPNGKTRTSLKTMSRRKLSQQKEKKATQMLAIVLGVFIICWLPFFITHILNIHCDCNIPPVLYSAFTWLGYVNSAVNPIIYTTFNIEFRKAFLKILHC

The target of the assay is D(2) dopamine receptor (Homo sapiens) (UniProt P14416). Description: HTS Assay for Allosteric Antagonists of the Human D2 Dopamine Receptor: Primary Screen for Antagonists. Note: 0% is about no effect. Particulars: HEK293 TREx D2 cells, calcium flux, dopamine EC80; at 10 µM; stronger effect = higher value. In outline:
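HEK293 T-REx D2 cells, tet-induced, calcium dye no-wash. Cpd pintool add, 180 s kinetic, then EC80 DA, 180 s kinetic. Ca flux read.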
In general terms: A change in cytosolic calcium serves as a functional read-out for many receptors and channels.
In general, inhibition refers to the drop in the measured response relative to a control, in per cent. Consider `Cc1cc2c(cc1S(=O)(=O)N(C)CC(=O)Nc1ccc(C#N)cc1)OCC(=O)N2`, for which the inhibition was -19.9%.
Under `Cn1c(=O)c2c(SCC(=O)NCc3ccco3)nc(-c3cccc(F)c3)nc2n(C)c1=O` stands 0.379%.
In the case of `Cc1ccc(S(=O)(=O)c2cn(CC(=O)Nc3ccccc3C)c3cc4c(cc3c2=O)OCO4)cc1`, the inhibition was found to be 19.3%.
As to `CCOc1ccc(CC(=O)Nc2c(C(=O)Nc3ccc(OC)cc3OC)oc3ccccc23)cc1`, the inhibition is -1.39%.
Under `Cc1sc2nc(CSc3ccccc3)nc(N3CCN(C)CC3)c2c1C` stands active: 89.9%; under `CCOC(=O)c1c(S(=O)(=O)N2CCCC(C(=O)Nc3cccc(C#N)c3)C2)c(C)n(C)c1C` (stereo not given), 12.1%; under `Cc1ccccc1CNC(=O)c1cccc(NC(=O)N2CCSc3ncccc32)c1`, -1.46%.
Under `CC(Oc1ccccc1)C(=O)Nc1ccc(OCc2cc(=O)n3ccsc3n2)cc1` (stereo not given) stands -5.57%.
On to `Cc1ccc(Cl)cc1NC(=O)C1CCCN(S(=O)(=O)c2cccc3cccnc23)C1` (stereo not given), for which the inhibition is -15.2%.
For `Cc1ccccc1NC(=O)c1c(NC(=O)c2ccco2)sc2c1CCC(C(C)(C)C)C2` (stereo not given) the value was 2.48%; for `CCC(=O)N1CCc2cc(Br)cc(S(=O)(=O)N3CCCC(C(=O)Nc4cccc(C)c4C)C3)c21` (stereo not given), -18.8%.
For `COc1ccc(N2C(=O)CS(=O)(=O)C23C(=O)N(Cc2ccc(F)cc2)c2ccc(C)cc23)cc1` (stereo not given) the value was -6.73%; for `COc1ccccc1CNC(=O)CSc1nc2nc(C)c(Cc3ccccc3Cl)c(C)n2n1`, 2.1%; for `COc1ccc(CCNC(=O)c2cccc(-n3cnc4cccnc43)c2C)cc1OC`, 0.0073%.
Under `CC(CNC(=O)CN1C(=O)COc2ccc(S(=O)(=O)N3CCCCCC3)cc21)c1ccccc1` (stereo not given) stands -5.5%; under `CCCCNC(=O)c1nn(-c2ccc(C)cc2)c(=O)n(C)c1=O`, 3.08%.
For the compound `COc1cc(NC(=O)CSc2nc3nc(C)c(Cc4ccccc4)c(C)n3n2)cc(OC)c1`, the inhibition turned out to be 11.4%.
`COc1ccc(C2OC[C@H]3O[C@H](O)[C@H](NC(C)=O)[C@@H](O)[C@@H]3O2)cc1` (stereo not given in full): the inhibition is active: 52.9%.
On to `CCOc1ccc2nc(N3CCCC(C(=O)NCCc4ccc(SC)cc4)C3)sc2c1` (stereo not given), for which the inhibition was -6.05%.
With `CCOc1cc(CN2CCN(C(=O)c3ccco3)CC2)ccc1OC`, the inhibition was active: 74.3%.
As to `CCN(c1ccc(C)cc1C)S(=O)(=O)c1nnc(NC(=O)CC(C)C)s1`, the inhibition turned out to be 1.09%.
As to `Cc1ccc(CNC(=O)c2ccc3c(c2)N(Cc2cccc(Cl)c2)C(=O)CS3)cc1`, the inhibition stood at 10.8%.
Under `Cc1cc(O)c(C(=O)c2cnc3c(c2)COc2ccccc2-3)cc1Cl` stands 0.868%.
For `Cc1ccc(Cl)cc1NC(=O)Cn1c(=O)n(CCC(=O)N2CCc3ccccc3C2)c(=O)c2ccccc21` the value was 0.0285%.
Under `CCOc1ccc(NC(=O)Cn2cc(C(=O)c3ccc(C)c(C)c3)c(=O)c3cc(F)ccc32)cc1` stands -1.71%; under `COc1cccc(CNC(=O)Cn2c(=O)oc3cc(S(=O)(=O)N4CCC(C)CC4)ccc32)c1`, 6.62%.
`Cc1ccc(-n2nc3c(=O)n(C(C)C(=O)O)nc(C)c3c2C)cc1` (stereo not given): the inhibition stood at 3.48%.
Regarding `COc1ccc(Cn2c(C(=O)O)c(CNCCc3ccccc3Cl)c3ccc(C)cc32)cc1`, the inhibition was -2.92%.
Under `CCC(=O)N1CCc2cc(S(=O)(=O)CCC(=O)NCc3ccc(F)cc3)ccc21` stands 14.5%; under `Cc1ccc(NC(=O)C2CCCN(c3nnc(C)c4c(C)n(-c5ccccc5)nc34)C2)cc1Cl` (stereo not given), -16.6%; under `CCOC(=O)c1cc2c(=O)n3ccccc3nc2n(Cc2ccco2)c1=NC(=O)c1ccccc1OC`, 3.27%.
On to `Cc1c2cnn(CC(=O)Nc3ccc(F)cc3F)c(=O)c2c(C)n1Cc1cccc(Cl)c1`, for which the inhibition is -3.22%.
For `O=C(Cn1c(=O)n(-c2ccc(F)cc2)c(=O)c2sccc21)Nc1cccc(C(F)(F)F)c1` the value was 12.9%; for `Cc1cc(C)cc(OCC(=O)Nc2cccc(-c3nc4ccccc4[nH]3)c2)c1`, -2.39%; for `COc1cc(C(=O)NCCC2=CCCCC2)ccc1OCc1c(C)noc1C`, active: 31.6%.
For `COc1ccc(-n2nc3c(c2NC(=O)C(=O)N2CCN(C)CC2)CSC3)cc1` the value was 23.4%; for `COc1ccc(CCC(C)N2CCc3ccccc3C2)cc1` (stereo not given), active: 55%.
For `O=C(Nc1ccccc1C(F)(F)F)c1noc2c1CCCCC2` the value was -6.88%; for `CC(=O)c1ccc(NC(=O)C2CCCN(S(=O)(=O)c3cn(C)cn3)C2)cc1` (stereo not given), 16.7%.
Turning to `CCc1cccc(C)c1Nc1c(-c2ccc(N3CCOCC3)cc2)nc2ncccn12`, the inhibition was 2.85%.
Under `CCc1ccc(N2C(=O)CS(=O)(=O)C23C(=O)N(Cc2ccccc2)c2ccccc23)cc1` (stereo not given) stands 4.55%; under `COc1cc(-c2noc(-c3nnn(-c4ccc(Cl)cc4)c3C)n2)cc(OC)c1OC`, 12.8%.
Turning to `Cc1ccc(-n2nc(CO)c(C(=O)NCCc3ccccc3)n2)cc1C`, the inhibition was -10.7%.
For the compound `Cc1ccc(OCCCCN2CCCCC2)c(Br)c1`, the inhibition is active: 73.5%.
For `CCOCCCNCc1ccc(OCCC(C)C)c(OC)c1`, the inhibition was active: 35.3%.
For the compound `Cc1c(CNC(C)c2ccccc2)c(C(=O)O)c(C)n1Cc1c(F)cccc1Cl` (stereo not given), the inhibition worked out at 1.34%.
Under `CCOC(=O)C1CCCN(C(=O)c2cc3c(=O)n(C)c4ccccc4c3s2)C1` (stereo not given) stands -19.9%.
Under `COc1ccc(CCC(=O)NNC(=O)Nc2cc(Cl)ccc2C)cc1` stands active: 33%.
Under `O=S(=O)(NCc1ccccc1)c1ccc2[nH]c3c(c2c1)CCCCC3` stands 5.27%; under `Cc1cc(NS(=O)(=O)c2ccc(NC(=O)COc3c(C)cc(Br)cc3C)cc2)no1`, -19.4%.
Consider `COc1cccc(NS(=O)(=O)c2ccc3[nH]cc(C(=O)NC4CCCCC4)c(=O)c3c2)c1`, for which the inhibition was found to be 12.1%.
For `Cc1ccc(SCC(=O)Nc2cccc(-c3nc4cc(Cl)ccc4o3)c2C)cc1` the value was -27.2%.
For `CCn1cc2nc(SCc3cccc(OC)c3)n(Cc3ccc(Cl)cc3)c(=O)c2n1` the value was 17%; for `COc1ccc2c(c1)C(C)CC(C)(C)N2C(=O)Nc1ccccc1` (stereo not given), active: 54%; for `CCCOc1ccc(CNC(=O)C2CCN(c3nc4ccccc4nc3C(F)(F)F)CC2)cc1`, 7.18%.
Under `COC(=O)c1cc2sccc2n1Cc1ccccc1` stands 13.8%.
In the case of `O=C(CCC1N=C2c3ccccc3N=C(SCc3cccc(F)c3)N2C1=O)NC1CCCCC1` (stereo not given), the inhibition came to 26.3%.
For `CC1=C(C(=O)Nc2ccccc2Cl)C(c2cccs2)n2ncnc2N1` (stereo not given) the value was -7.39%; for `COc1ccccc1CCNC(=O)c1cc2ccccn2n1`, 2.48%.
With `COCCCNC(=O)c1c(NC(=O)c2cc(=O)c3cc(C)c(C)cc3o2)sc2c1CCCC2`, the inhibition amounted to 15.4%.
On to `CCCN1C(=O)CN(C2CCCCCC2)C(=O)C1c1ccc(OCC)c(OC)c1` (stereo not given), for which the inhibition was -7.15%.
For `Cc1cc(=O)n2nc(N3CCCC(C(=O)NCc4ccco4)C3)sc2n1` (stereo not given) the value was active: 36.3%; for `CCCCNc1cc(NC2CCCCC2)c2c3c(onc13)-c1ccccc1C2=O`, 7.22%; for `O=C(NC1CC(=O)N(c2cccc(F)c2)C1)C1CCCCC1` (stereo not given), -16.5%.
As for `COc1ccccc1CCNC(=O)Cc1c(C)c2c(cc(C)c3c(C)coc32)oc1=O`, the inhibition was found to be 6.87%.
`COc1ccc(N2C(=O)C(CC(=O)Nc3ccc(F)cc3)N(CCC3=CCCCC3)C2=O)cc1` (stereo not given): the inhibition is -5.7%.
Under `CN(C(=O)Nc1cn(C)c(=O)c2ccccc12)c1ccccc1` stands -3.49%.
On to `COc1ccc(Cl)cc1NC(=O)CN1c2ccccc2S(=O)(=O)c2ccccc21`, for which the inhibition amounted to 3.03%.
For the compound `O=C(CSC1=Nc2ccccc2N=C(c2ccc(F)cc2)C1)Nc1cc(F)ccc1F`, the inhibition was -0.899%.
Under `COc1ccc(OC)c(NC(=O)C2CCCN(S(=O)(=O)c3c(C)noc3C)C2)c1` (stereo not given) stands active: 43.7%; under `CCC(Cn1nnc2ccccc2c1=O)NC(=O)Nc1cccc(Cl)c1` (stereo not given), 7.62%; under `COc1ccc(-c2[nH]ncc2C(=O)NCc2ccc(F)cc2)cc1`, 12.1%.
As to `Cc1ccc(C(=O)N2CCN(c3ccccc3F)CC2)cc1NC(=O)c1nsc2ccccc12`, the inhibition was -0.492%.
For the compound `O=[N+]([O-])c1cccc(CN2CCN(c3cccc4[nH]ccc34)CC2)c1`, the inhibition was active: 42.1%.
In the case of `CCc1cccc(NC(=O)Cn2c(=O)n(CC3CCC(C(=O)NCCc4ccccc4)CC3)c(=O)c3ccccc32)c1` (stereo not given), the inhibition is -10.1%.
Take `O=C(NCc1ccc(F)cc1)C1CCN(C(=O)c2cnn(-c3ccccc3)c2-n2cccc2)CC1`: the inhibition is 5%.
For `O=C(Nc1ccccc1C(=O)O)c1cccc(S(=O)(=O)N2CCCC2)c1`, the inhibition was -17.4%.
On to `COCCNC(=O)CN1C(=O)COc2ccc(Cl)cc21`, for which the inhibition is active: 34.7%.
For `Nc1ccc(C#Cc2ccc3c(=O)c4ccccc4oc3c2)cc1` the value was active: 41.3%; for `CCOc1cc(C(=O)NCc2ccc3c(c2)CCN3C(=O)CC)cc(OCC)c1OCC`, 8.73%; for `CCCCN(CC)CCCNC(=O)c1cn(C)c2ccc(S(=O)(=O)N(C)C3CCCCC3)cc2c1=O`, -4.14%.
In the case of `COc1cccc(CNC(=O)CCC(=O)N2CC3CCCN3c3ccccc32)c1` (stereo not given), the inhibition worked out at 19.4%.
Under `Cc1ccccc1NC(=O)CN(C)S(=O)(=O)c1cccc2nsnc12` stands 2.24%.
Under `Clc1ccc(-c2c[n+](Cc3ccc(Cl)c(Cl)c3)c3n2CCC3)cc1` stands active: 40.9%; under `Cc1cccc(NC(=O)Cn2nc(N3CCN(c4ccccc4)CC3)ccc2=O)c1C`, -0.659%; under `CCOC(=O)c1cnn(-c2cccc(F)c2)c1C1CCNCC1`, 28.3%.
For `CCOc1ccc(CCNC(=O)Cn2nc(C)c3c(C)n(-c4ccccc4)nc3c2=O)cc1OCC` the value was -1.62%; for `Cc1ccc(S(=O)(=O)Nc2cc(Cl)c3oc4c(c3c2)C(=O)CC(C)(C)C4)cc1`, 19.2%.
Turning to `COc1ccccc1CNc1nc(-c2ccco2)nn1S(=O)(=O)c1ccc(Cl)cc1`, the inhibition was -7.11%.
As to `COc1cc(C(=O)Nc2ccc(-c3cc(C(F)(F)F)nn3-c3ccccc3)cc2)cc(OC)c1OC`, the inhibition was -9.73%.
Under `COc1cc(OC)c(NC(=O)Cn2c(=O)cc(C(F)(F)F)c3c(C)nn(C)c32)cc1Cl` stands -3.85%; under `Cc1ccccc1NC(=O)CSc1nc2ccc(NC(=O)COc3ccccc3F)cc2s1`, 1.42%.
For the compound `CCc1ccccc1NC(=O)c1cnn2c(C(F)(F)F)cc(-c3ccc(OC)c(OC)c3)nc12`, the inhibition amounted to 6.28%.
For `Cc1ccc(CNC(=O)c2cc(C3CC3)nc3c2c(C)nn3-c2cccc(Cl)c2C)cc1` the value was -0.506%.
Consider `O=C(COC(=O)CCN1C(=O)C2CC=CCC2C1=O)NCCc1ccc(F)cc1` (stereo not given), for which the inhibition is active: 37.1%.
